In all, about 52,000 compounds went through this assay and about 1,700 (3.3%) were called active. Rule as the data show it: active = survival mostly below about 52% (no sharp cut-off); inactive = mostly above about 56%. The list shows a part of the results.

For the assay, the system named is Wild type. The assay can be described thus: growth inhibition of S. aureus wild type versus tarO mutant, primary screen, teichoic acid synthesis inhibitors, RN4220, OD600 (AID 463173). The conditions noted are these: S. aureus RN4220 wild type/DeltatarO growth, OD600, 18 h, active compounds read low, screened at 18.75 µg/mL (by protocol).
Regarding `CC(=O)c1cccc(NC(=O)CCCSc2nc(-c3ccco3)cc(C(F)(F)F)n2)c1`, the survival is inactive: 52%.
Take `COc1ccc2c(c1)c(=O)c(S(=O)(=O)c1ccccc1)cn2CC(=O)Nc1ccc2c(c1)OCO2`: the survival is inactive: 71%.
In the case of `CCCN(C(=O)Cn1ncc2c([nH]c3ccccc32)c1=O)c1ccc(F)cc1`, the survival is inactive: 95%.
For the compound `O=C(CCn1nc(-c2ccccc2)c2ccccc2c1=O)Nc1cccnc1`, the survival is inactive: 119%.
Consider `CCc1ccccc1NC(=O)Nc1cc(C(=O)NCc2ccccc2OC)ccc1N1CCCC1`, for which the survival was inactive: 72%.
To `COc1ccc(NC(=O)CN2C(=O)C(c3ccc(C)cc3)=NC23CCCCCC3)cc1Cl` belongs inactive: 92%.
Take `COc1cccc(-c2nc(SCC(=O)NCC3CCCO3)c(-c3ccc(Cl)cc3)[nH]2)c1` (stereo not drawn): the survival was inactive: 68%.
Take `CN(C)CCNC(=O)C(=O)NCC(c1cccnc1)N1CCN(c2ccccc2)CC1` (stereo not drawn): the survival is inactive: 83%.
`Cc1ccc(NC(=O)c2ccc(CNS(=O)(=O)c3ccc4c(c3)C(C)(C)C(=O)N4C)cc2)cc1`: the survival was inactive: 105%.
In the case of `COc1ccc(N2CCN(C(=O)Cn3c(-c4cccs4)cc4ccccc43)CC2)cc1`, the survival is inactive: 99%.
For `Cc1ccc(C)c(Cn2c(=O)n(-c3ccc(F)cc3)c(=O)c3sc4ccccc4c32)c1`, the survival was inactive: 82%.
Turning to `Clc1cccc(-n2ncc3c(Nc4ccc5c(c4)OCCO5)ncnc32)c1`, the survival was inactive: 47%.
In the case of `O=C(CSc1nc2ccsc2c(=O)n1Cc1ccccc1F)NCc1ccccc1Cl`, the survival was inactive: 120%.
Then `CSc1nnc(-c2ccncc2)n1C`, with inactive: 110%; and `CC(=O)N1CCc2cc(S(=O)(=O)NC(Cc3ccccc3)C(=O)Nc3ccc(C)cc3C)ccc21` (stereo not drawn), with inactive: 74%; and `O=C(Nc1cccc(Cl)c1Cl)c1cc(S(=O)(=O)N2CCCc3ccccc32)ccc1F`, with inactive: 85%.
`COc1cc(OC)c(N(C)C(=O)CSc2c3c(nc4ccc(Cl)cc24)CCCC3)cc1Cl`: the survival was active: 2%.
Turning to `COc1ccc(CC(=O)NCC2OCCc3ccccc32)cc1OC` (stereo not drawn), the survival is inactive: 112%.
As to `Cc1ccc(C(=O)Nc2ccc3oc(-c4cc(Br)ccc4Cl)nc3c2)cc1`, the survival was inactive: 89%.
Turning to `CCc1ccc(NC(=O)CC2C(=O)N(c3ccc(OC)cc3)C(=O)N2Cc2cccs2)cc1` (stereo not drawn), the survival was inactive: 75%.
In the case of `Cc1cc(=O)[nH]c(SC(C)C(=O)NC2CCCCC2)n1` (stereo not drawn), the survival was inactive: 100%.
To `O=C(O)C1CC=CCC1C(=O)N1CCCC1` (stereo not drawn) belongs inactive: 112%.
With `CCOC(=O)c1cnc2c(C)cc(C)cc2c1Nc1ccccc1OCC`, the survival was active: -1%.
Then `COc1ccc(C(=O)Nc2ccc3oc(-c4cc(Cl)ccc4Cl)nc3c2)cc1Br`, with inactive: 76%; and `Cc1nn2c(-c3ccco3)ccnc2c1-c1ccc(Cl)cc1`, with inactive: 82%.
In the case of `COC(=O)c1c(NC(=O)/C=C/c2ccc(OC)cc2)sc2c1CCC2`, the survival is inactive: 85%.
Then `CC(C)c1cnc2c(c1SCC(=O)Nc1ccc(C(N)=O)cc1)c(=O)n(C)c(=O)n2C`, with inactive: 71%; and `CCOC(=O)Cn1c(-c2cccs2)cc2cc(Cl)ccc21`, with inactive: 30%.
In the case of `COc1ccc(CNC(=O)CSc2ncc3c(n2)-c2cc(Cl)ccc2N(C)S3(=O)=O)cc1`, the survival was inactive: 59%.
Take `CN(CCCNC(=O)c1cc2c(=O)n(C)c3ccccc3c2s1)Cc1ccccc1`: the survival is inactive: 77%.
As for `O=C(Cn1c(=O)n(-c2ccccc2)c(=O)c2ccc(C(=O)NCc3ccc4c(c3)OCO4)cc21)Nc1ccc(F)c(Cl)c1`, the survival was inactive: 77%.
Regarding `COc1ccc(N(C(=O)c2cccc(C)c2)S(=O)(=O)c2ccc3c(c2)n(C)c(=O)n3C)cc1`, the survival is inactive: 79%.
Consider `CCOC(=O)c1cc(OC(=O)c2ccccc2OC)n(-c2ccccc2)n1`, for which the survival is inactive: 68%.
With `CCN1C(=O)c2ccccc2Sc2ccc(NC(=O)c3cccc(C)c3)cc21`, the survival is inactive: 80%.
On to `Cc1ccc(NC(=O)Nc2cccs2)c(C)c1`, for which the survival is inactive: 86%.
`CC(C(=O)O)N1C(=O)/C(=C/c2ccco2)SC1=S` (stereo not drawn): the survival is inactive: 106%.
On to `COC(=O)Cn1c2ccccc2c2nc(C)sc21`, for which the survival was inactive: 92%.
To `COc1ccc(CCNC(=O)c2ccc3c(c2)N(Cc2cccc(Cl)c2)C(=O)c2ccccc2S3=O)cc1OC` (stereo not drawn) belongs inactive: 75%; to `Cc1cccc(CC(=O)NCCc2sc3nc(-c4ccc(F)cc4)nn3c2C)c1`, inactive: 119%; to `CN(C)CC(O)C1CCOC(C)(C)C1` (stereo not drawn), inactive: 111%.
Consider `COc1ccc(OCC(=O)N(Cc2ccc(C)o2)C2CCS(=O)(=O)C2)cc1` (stereo not drawn), for which the survival is inactive: 94%.
For `c1ccc2c(c1)[nH]c1nc(NN=C3CCC(=NNc4nnc5c(n4)[nH]c4ccccc45)CC3)nnc12`, the survival was inactive: 108%.
For `CCOc1ccc(CCNC(=O)c2ccc(-c3nc(CSc4ccccc4)c(C)o3)cc2)cc1`, the survival is inactive: 87%.
Then `CCC(C)NC(=O)CSCc1nc(-c2ccc(C)cc2)oc1C` (stereo not drawn), with inactive: 82%; and `O=C(c1ccccc1Br)N(Cc1ccccc1F)C1CCS(=O)(=O)C1` (stereo not drawn), with inactive: 114%; and `CN1CCN(C(=O)c2ccc3c(c2)N(Cc2ccc(Cl)cc2)C(=O)c2ccccc2S3(=O)=O)CC1`, with inactive: 90%.
For the compound `CCc1ccc(N(CC)C(=O)c2sc3nc4n(c(=O)c3c2C)CCCC4)cc1`, the survival was inactive: 75%.
To `COc1ccccc1NC(=O)CN1C(=O)CCSc2ccccc21` belongs inactive: 77%; to `CCOC(=O)C1(C(=O)OCC)CC1(C(=O)OCC)C(=O)OCC`, inactive: 105%; to `Cc1cccc(NS(=O)(=O)c2ccc3c(c2)CCN3C(=O)C2CC2)c1C`, inactive: 70%.
With `Cn1nnnc1SCCCNCc1ccccc1OCc1ccc(F)cc1`, the survival is inactive: 89%.
For the compound `CCN(C(=O)c1cn(C)c(=O)c2ccccc12)c1cccc(C)c1`, the survival was inactive: 143%.
For `Cc1ccc(Cl)cc1NC(=O)CSCc1cnn(-c2ccccc2)c1-n1cccc1`, the survival is inactive: 78%.
Turning to `O=C(Cn1c(=O)ccc2cc(S(=O)(=O)N3CCCC3)ccc21)Nc1ccc(Cl)cc1`, the survival was inactive: 81%.
Then `COc1cccc(Cn2c(=O)n(CCc3ccccc3)c(=O)c3c2c2cc(OC)ccc2n3C)c1`, with inactive: 55%; and `Cc1ccc(Cl)cc1NC(=O)C1CCN(S(=O)(=O)c2cccc3nonc23)CC1`, with inactive: 109%.
For the compound `COc1ccc(C(=O)NNc2ncnc3c2cnn3-c2ccc(C)c(Cl)c2)cc1`, the survival was inactive: 73%.
Take `COc1ccc(NC(=O)c2c(NC(=O)c3ccncc3)sc3c2CCC(C(C)(C)C)C3)cc1` (stereo not drawn): the survival was inactive: 47%.
With `CCOc1ccc(N(CC(=O)Nc2ccccc2CC)S(=O)(=O)c2c(C)noc2C)cc1`, the survival was inactive: 86%.
`Cc1cccc(NC(=O)CSc2nc3ccccc3nc2N2CCCCC2)c1C`: the survival is inactive: 70%.
`COc1cc(NC(=O)C(Cc2ccccc2)NS(=O)(=O)c2cccc3nsnc23)cc(OC)c1` (stereo not drawn): the survival is inactive: 79%.
To `CN(c1ccccc1C(=O)NCc1ccco1)S(C)(=O)=O` belongs inactive: 102%.
Regarding `O=C(Cn1ccn(-c2ccc(F)c(F)c2)c(=O)c1=O)NCCc1ccccc1`, the survival was inactive: 89%.
`COc1ccc(Br)cc1CNC(=O)c1ccc2c(c1)nc1n2CCC(C)C1` (stereo not drawn): the survival was inactive: 70%.
To `CN(C)CCN1C(=O)C2C3C=CC(C3)C2C1=O` (stereo not drawn) belongs inactive: 116%.
In the case of `CCCCNc1nc(Oc2ccc(=O)n(C)n2)nc(N2CCOCC2)n1`, the survival was inactive: 88%.
Take `CC(=O)c1cccc(NC(=O)CCc2c(C)nc3c(c(C)nn3-c3ccccc3)c2C)c1`: the survival is inactive: 79%.
Then `Cc1cc(C)cc(NC(=O)c2cc(S(=O)(=O)N3CCC(C)CC3)cn2C)c1`, with inactive: 79%; and `COc1ccc(C(=O)c2c(N)c(-c3nc(-c4ccc(OC)cc4)cs3)c3ccccn23)cc1`, with inactive: 98%; and `Cc1cc(C)c2c(=O)cc(C(=O)Nc3c(C)n(C)n(-c4ccccc4)c3=O)oc2c1`, with inactive: 94%.
Consider `CCN(CC)C(=O)N1CCN(C(=O)N(CC)CC)CC1`, for which the survival was inactive: 110%.
Then `O=C(CCC1N=C2c3ccccc3N=C(SCc3cccc(Cl)c3)N2C1=O)N1CCN(c2ccccc2)CC1` (stereo not drawn), with inactive: 59%; and `CCOc1ccc(-c2cc3c(=O)n(CC(=O)Nc4cc(F)ccc4C)ccn3n2)cc1`, with inactive: 68%; and `CCn1nc(-c2ccccc2)c(-c2ccccc2)c(C(=O)Nc2ccccc2C#N)c1=O`, with inactive: 87%.
On to `COc1cc2[nH]c(=O)n(CCC(=O)N3CCN(c4ccc(Cl)cc4)CC3)c(=O)c2cc1OC`, for which the survival was inactive: 93%.
`Cc1cc(C)c(/C=C/c2onc(C)c2S(=O)(=O)N2CCC(C(=O)NCc3ccccc3Cl)CC2)c(C)c1`: the survival was inactive: 72%.
As to `O=S(=O)(Cc1ccccc1)NCc1ccco1`, the survival was inactive: 100%.
In the case of `CCS(=O)(=O)N1CCN(Cc2nc3sc4c(c3c(=O)[nH]2)CCC(C(C)(C)C)C4)CC1` (stereo not drawn), the survival was inactive: 104%.
In the case of `Cc1csc2nc(COc3ccc(NC(=O)COc4ccccc4)cc3)cc(=O)n12`, the survival was inactive: 93%.
Regarding `CCOC(=O)C1CCN(C(=O)Cn2ncc3c4ccccc4n(Cc4ccc(F)cc4)c3c2=O)CC1`, the survival is inactive: 80%.
In the case of `COc1ccc(S(=O)(=O)c2c(O)c3ccc(C(=O)NCc4ccc(Cl)cc4)cc3[nH]c2=O)cc1`, the survival was inactive: 90%.
Consider `CCN(Cc1ccccc1)C(=O)Cn1c(=O)n(-c2cccc(C)c2)c(=O)c2c1c1cc(C)ccc1n2C`, for which the survival was inactive: 74%.
Regarding `Cc1ccc2oc3c(c(=O)c2c1)C(c1ccc([N+](=O)[O-])cc1)N(CCCN1CCOCC1)C3=O` (stereo not drawn), the survival is inactive: 84%.
With `C=CCc1ccccc1OCc1nc2ccccc2n1CC`, the survival was inactive: 76%.
On to `COc1ccc(OCC(O)CN(Cc2ccccc2)Cc2ccccc2)cc1` (stereo not drawn), for which the survival was inactive: 120%.
Turning to `CC(C)(C)C(=O)Cn1c(=O)n(-c2ccccc2)c(=O)c2c3c(sc21)CCC3`, the survival is inactive: 85%.
Take `Cc1ccc(NC(=O)CN2C(=O)COc3ccc(S(=O)(=O)NC4CCCC4)cc32)cc1Cl`: the survival is inactive: 66%.
Consider `Cc1ccccc1OCC(=O)NCCN1CCCC1`, for which the survival is inactive: 113%.

(Values after PubChem BioAssay AID463173 (ICCB-Longwood Screening Facility, Harvard Medical School, 2010).)
